We go through 167 variants from the RNAGym collection of RNA variant scans (doi:10.7554/elife.90254).

B1: LINE1-mini (parent)
chain: GGCAGAGCUCAACACAGCGUGGCAAAGUGGCUGUGGCUAGACUGCC

The source gives no read counts; variants with many changes may rest on few reads.

The variants in the data set derive from B1. In words: self-cleavage, relative activity (ratio to wild type); higher = more cleavage; in vitro, sequencing; the parent is a self-cleaving ribozyme.
On to A6G C13A C18G C23U C37G, for which the self-cleavage is 0.02.

For the variant C13G G29U G44U, the self-cleavage came to 0.16.

As for A6C C13U G19C C31G U34G, the self-cleavage came out at 0.03.

Turning to U9C G22A C46A, the self-cleavage turned out to be 0.03.

For G27U G29U U38A, the self-cleavage was determined as 0.49.

In the case of G5A G21A A39G, the self-cleavage was 0.09.

With C8G C10A G17U A41U C42A C45U, the self-cleavage came out at 0.01.

Turning to C3U G22A G30C U34C, the self-cleavage is 0.08.

For the variant A4U G21C G22A G33A U38A C45A, the self-cleavage came out at 0.01.

Consider C13U A24C G35A, for which the self-cleavage worked out at 0.4.

Turning to U9G C31U A41G, the self-cleavage was determined as 0.02.

Regarding G7U C15A G19C G27U C37U C45A, the self-cleavage came to 0.02.

For C8G U20C A25G G30C, the self-cleavage was 0.23.

On to G1A U9C U32G A41C C46U, for which the self-cleavage came out at 0.05.

Regarding G5U G30C G33C, the self-cleavage came to 0.03.

For C3G C15A C18G A39U U43G G44A, the self-cleavage was found to be 0.01.

In the case of G17U G35U C42A C46G, the self-cleavage amounted to 0.03.

As to A4C A25C G30U C37A C42A, the self-cleavage amounted to 0.02.

C8A C10A A12C G33A U34A G36U: the self-cleavage worked out at 0.

Turning to A12C A14G C18G, the self-cleavage was 0.01.

Regarding A11U A12U G22U, the self-cleavage is 0.05.

Take A4G G7C A16C A39C A41U C46G: the self-cleavage turned out to be 0.04.

In the case of U20C U43G C45A C46U, the self-cleavage was found to be 0.01.

Consider G7A U28A G36U, for which the self-cleavage is 0.05.

In the case of U9C A39U C45U, the self-cleavage came to 0.02.

Turning to C3G A12U C18G, the self-cleavage was 0.17.

For the variant C3U G7C C31U G44C, the self-cleavage worked out at 0.05.

Regarding G5C G29C A39C, the self-cleavage is 0.03.

In the case of A14U G21U C45G, the self-cleavage stood at 0.06.

C10G C13U G35C U38G C45A: the self-cleavage was determined as 0.

For G30U U43A C45A, the self-cleavage came out at 0.01.

As to G1C G33C G44C, the self-cleavage was 0.01.

On to G17A C18A A25C G29U, for which the self-cleavage came to 0.05.

Regarding G5C U9C A14C U43A, the self-cleavage was found to be 0.01.

In the case of A6C G17A C45G, the self-cleavage was 0.

As to A12U G17U A25C G35C, the self-cleavage was determined as 0.11.

For the variant A25C G30C C31A, the self-cleavage came to 0.8.

Turning to G1C G2C G7U U9A C13G A24U C31A, the self-cleavage came to 0.01.

As to U9A C10U C23G G35U, the self-cleavage came to 0.03.

C3A C15A G22C G40U: the self-cleavage came to 0.13.

Take C10A G22A G35U: the self-cleavage is 0.02.

In the case of G5C C10A C13G C15U C18U G29A G35A, the self-cleavage came to 0.02.

Take G2A A12G A14U: the self-cleavage was 0.06.

Take G21U G30C A41U: the self-cleavage is 0.2.

On to G5U G19U U20A, for which the self-cleavage is 0.05.

Consider G17C G27U G36U A39C, for which the self-cleavage is 0.05.

As to A16C A24C A26U G27A, the self-cleavage came out at 0.

Turning to G2C A11U G29A C42A, the self-cleavage came out at 0.01.

As to G19C G22C G35C, the self-cleavage stood at 0.02.

Turning to G2U A6G G22U, the self-cleavage stood at 0.03.

Turning to U20C G21A C31G, the self-cleavage is 0.12.

As to A24U G29U G36U, the self-cleavage amounted to 0.04.

In the case of U32A U34G G36C, the self-cleavage was 0.12.

Turning to C13U A25C C37U U38G, the self-cleavage was found to be 0.01.

C15G G21C A25C G36U C45G: the self-cleavage came out at 0.01.

As for A6C A26C U43G C45U, the self-cleavage came to 0.02.

For G1A G7A A16C U43G, the self-cleavage turned out to be 0.33.

As to A11U A14C G17C G40U, the self-cleavage was 0.04.

As for C15G G17A G30A, the self-cleavage is 0.09.

As to C8G G35U C45U, the self-cleavage turned out to be 0.03.

In the case of G22U C23A A39G, the self-cleavage was 0.06.

Consider G29U C31A G44U, for which the self-cleavage was determined as 0.03.

As to A4C G29C C45U, the self-cleavage worked out at 0.3.

Take C3U C18U G19U: the self-cleavage was 0.15.

On to C3U G7C U9C G27A, for which the self-cleavage amounted to 0.03.

Consider A16U G19U U28C C31G A39G, for which the self-cleavage was 0.04.

Turning to C3A A26C G33C C42G, the self-cleavage worked out at 0.07.

G2C C10G U28C C42U U43A: the self-cleavage stood at 0.

For the variant A14U A16C C46G, the self-cleavage stood at 0.11.

Consider C3G A14U G21A C31U U34A G35C G36U, for which the self-cleavage was determined as 0.01.

Regarding G7C A12U C13G, the self-cleavage was found to be 0.25.

As for G5U A11G U34A, the self-cleavage amounted to 0.01.

As to G22U C37G C45U, the self-cleavage is 0.04.

As to C15U G29C G30A G36C, the self-cleavage came out at 0.06.

Take G30U G33C G35C: the self-cleavage was 0.08.

Turning to G1C A6U C8A G30U U34C, the self-cleavage amounted to 0.06.

For G17U G21A C23A G44U, the self-cleavage came to 0.01.

Regarding A6G A11U C18A C37U U38A, the self-cleavage is 0.01.

Regarding A14U G35C G40A, the self-cleavage stood at 0.15.

C13A G19U G30A: the self-cleavage was 0.09.

For the variant A16U G21U C45A, the self-cleavage was 0.11.

Regarding G5C G33U U38C, the self-cleavage was 0.04.

With G21C U38A C46A, the self-cleavage came to 1.26.

Consider G1A U20C A25C, for which the self-cleavage is 0.32.

As for C8U A24C C45A, the self-cleavage came out at 0.1.

As for G17A G29C U32C, the self-cleavage worked out at 0.03.

For A16G G29C G30C U43A, the self-cleavage stood at 0.01.

As for G1C C3A C31A U34C A39C C42G, the self-cleavage was found to be 0.03.

Consider G7U G17U A41C C46A, for which the self-cleavage came to 0.04.

Take C18G G19U G21C A39G C42A: the self-cleavage is 0.06.

In the case of A6C C23U U28C, the self-cleavage turned out to be 0.99.

For G1U G19A A26C, the self-cleavage stood at 0.23.

As for G2A A12G C15G G29C C37A, the self-cleavage amounted to 0.1.

For A14U G17U G19U, the self-cleavage was determined as 0.08.

For U20A G27U U28G, the self-cleavage came to 0.35.

C18A G21U C23A: the self-cleavage turned out to be 2.23.

In the case of G17U C18A A26C, the self-cleavage was 0.47.

U9A G29A G35A C37G C45U: the self-cleavage is 0.02.

On to G2A C13A G30A C31G U32C, for which the self-cleavage turned out to be 0.07.

As to U20A A25U C31A, the self-cleavage is 0.05.

A6U C13A G19A G35U G36A: the self-cleavage was 0.4.

In the case of C8A A11U A14G C15A G22U C37U, the self-cleavage is 0.03.

With G5U A6C G19U C23U G27U, the self-cleavage was 0.08.

As for U9G A14C U28C, the self-cleavage turned out to be 0.06.

As for A4C A25U G33A C37U, the self-cleavage was found to be 0.09.

As for A4U U9C A24U A41G, the self-cleavage is 0.02.

With U20A G35C C37U A39U, the self-cleavage came out at 0.04.

A6U C8U G29U: the self-cleavage was found to be 0.27.

On to C10A G17A G35A G44U C45G, for which the self-cleavage amounted to 0.01.

On to A4G G5C G40C, for which the self-cleavage worked out at 0.12.

For C8G C15A C42G, the self-cleavage amounted to 0.03.

For G2U C23G G30U, the self-cleavage amounted to 0.04.

For G17U G21U U28C, the self-cleavage amounted to 0.55.

For the variant G2A A4G C13A C37A C46G, the self-cleavage worked out at 0.12.

As to A6G G30U G35C, the self-cleavage was found to be 0.05.

On to G5A A41G C42U, for which the self-cleavage worked out at 0.06.

On to A4C G17U C31G G40C, for which the self-cleavage was 0.04.

On to G2U G5A G29U G30A, for which the self-cleavage turned out to be 0.04.

For C10A A26U G27A G35C U38A, the self-cleavage is 0.01.

Turning to G19U G29C C46U, the self-cleavage is 0.98.

Consider G7A U9C C10G C42A, for which the self-cleavage came out at 0.01.

For G2A G7U C42U C45U, the self-cleavage came out at 0.02.

Take G1A G5U C15A G22U: the self-cleavage is 0.06.

For the variant A14U U20G G21U G29U, the self-cleavage is 0.11.

Turning to G1U C8G C18A U28A G33U A39G, the self-cleavage came to 0.03.

Regarding C10U C18G C31U, the self-cleavage came to 0.02.

C10U C15G G19A A26G: the self-cleavage came out at 0.03.

As to C23A G29C G35U, the self-cleavage was 0.04.

Regarding A26C G29A C31U, the self-cleavage was found to be 0.5.

As for G5U C8A C10U G44U C45A, the self-cleavage is 0.05.

As to A6C C15U C18U G44U, the self-cleavage amounted to 0.02.

Turning to C8U A11U C45A, the self-cleavage came to 0.02.

On to A11U G22A G29U, for which the self-cleavage came to 0.19.

Regarding A12U A16U G17A G30U U34G G35U, the self-cleavage was 0.

On to G22C U28C C31A A39U U43A, for which the self-cleavage was 0.04.

As for A41G G44C C45G, the self-cleavage came to 0.01.

For A6U A25U C37G C42A G44A, the self-cleavage was determined as 0.28.

As for G17A A26U U28A, the self-cleavage amounted to 0.06.

Turning to C8U U20C G30A, the self-cleavage was determined as 0.01.

For the variant U28C G33C C45A, the self-cleavage was 0.02.

Consider G19C G27A U28G G33U C37A, for which the self-cleavage turned out to be 0.02.

As for G2A G17U G33C, the self-cleavage came to 0.15.

Regarding G27C G36A C37U, the self-cleavage worked out at 0.02.

As for G5U C18G G30C G33C, the self-cleavage is 0.03.

Consider C10G G22A G30C, for which the self-cleavage stood at 0.17.

Consider U9C C18G G21U G30C, for which the self-cleavage turned out to be 0.12.

With G36A A41U U43C, the self-cleavage came to 0.24.

As to A11C C15G G29C C31U, the self-cleavage was 0.01.

Consider G5A C15U G36C, for which the self-cleavage was 0.05.

As to G5U U9C A39G, the self-cleavage is 0.

On to A16U G21A G22A G33A G40A C45A, for which the self-cleavage was determined as 0.

With C18G A24G C37A G44U, the self-cleavage was determined as 0.14.

For G5A A6G C45U, the self-cleavage is 0.28.

C13U A24U G36C: the self-cleavage is 0.03.

In the case of G5U A12G A16U, the self-cleavage came out at 0.05.

For the variant C8U G17C U32C, the self-cleavage is 0.13.

For the variant A16C G22U C31G G35A U38G, the self-cleavage came out at 0.

For the variant C10G C13A G17C G19A, the self-cleavage was found to be 0.01.

A16G U34C C42G: the self-cleavage is 0.39.

In the case of A6G C23A A25G, the self-cleavage turned out to be 0.06.

In the case of A6U G21A G27C G33U G36U, the self-cleavage amounted to 0.06.

As to C13G G33U G36A, the self-cleavage amounted to 0.03.

Turning to U9A G27C G44U, the self-cleavage turned out to be 0.03.

As to G2C A26C U32A, the self-cleavage was determined as 0.06.

Turning to A4G G19C C37A, the self-cleavage amounted to 0.

Consider C15U U20C C37U, for which the self-cleavage was 0.09.

For the variant C13U A16G G19A U32C U34C, the self-cleavage came to 0.12.
